According to PubChem BioAssay AID1159614 (National Center for Advancing Translational Sciences (NCATS), 2016):
The whole screen tested about 45,000 compounds, of which about 65 (0.1%) were called active. Calls follow the shape of the dose curve; as a rule, active = well fitted activation curve with a large enough effect; inconclusive = small, poorly fitted or top-dose-only effect; inactive = no such curve, though single readings can be large or run the other way. The list shows a part of the results.

biological target: Galactocerebrosidase (Homo sapiens) (UniProt P54803); experiment: A Novel Cell-Based Assay to Identify Small Molecules for B -Galactocerebrosidase; conditions: 145M-Twi-hGALC-G270D cells (Twitcher mouse brain line with human GALC G270D), HMU-beta-Gal fluorescence, 48 h; series mostly up to 57.5 µM; activation: at the top concentration; also: nearly all actives have a fitted effect of over 65% in size; as to activation: 0% is about no effect
Chain of UniProt P54803 (P54803 whole entry, looked up): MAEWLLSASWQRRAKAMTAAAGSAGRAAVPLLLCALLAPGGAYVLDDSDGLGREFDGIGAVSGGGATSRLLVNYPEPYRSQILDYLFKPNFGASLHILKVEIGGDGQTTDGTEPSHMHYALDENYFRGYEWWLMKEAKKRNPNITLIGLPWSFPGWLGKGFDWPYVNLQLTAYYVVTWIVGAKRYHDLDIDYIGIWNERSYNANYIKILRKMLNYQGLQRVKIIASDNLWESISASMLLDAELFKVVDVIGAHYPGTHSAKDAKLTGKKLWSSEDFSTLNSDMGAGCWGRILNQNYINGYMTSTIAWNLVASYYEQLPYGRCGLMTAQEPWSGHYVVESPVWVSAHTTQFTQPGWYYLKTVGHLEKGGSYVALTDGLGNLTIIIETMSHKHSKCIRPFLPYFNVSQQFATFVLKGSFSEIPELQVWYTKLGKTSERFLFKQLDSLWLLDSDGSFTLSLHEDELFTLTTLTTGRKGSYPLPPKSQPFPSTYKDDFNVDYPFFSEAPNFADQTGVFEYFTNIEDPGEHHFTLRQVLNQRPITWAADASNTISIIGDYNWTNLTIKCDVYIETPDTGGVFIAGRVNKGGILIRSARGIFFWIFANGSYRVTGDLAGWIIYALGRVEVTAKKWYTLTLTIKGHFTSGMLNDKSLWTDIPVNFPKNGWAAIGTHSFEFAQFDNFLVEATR
How it was run: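 Live 145M-Twi cells (Twitcher mouse brain-derived, GALC-null) stably expressing human GALC-G270D, with a wild-type GALC line, were compound-treated. Residual GALC activity was then read as fluorescence from 0.1 mM final HMU-β-gal at pH 5.2; higher signal means activation.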
Potency is read from the fitted curve at half-maximal effect.

activation, inactive:
COCCNc1sc(S(=O)(=O)c2ccc(C)cc2)nc1S(=O)(=O)c1ccc(C)cc1 -10.4%
CC(=O)Nc1ccc(NC(=O)CSc2nccn2C)cc1 -21%
CCOC(=O)c1cc2c(=O)n3ccccc3nc2n(CC(C)C)c1=NC(=O)c1c(-c2c(F)cccc2Cl)noc1C -13.3%
CCCN(C(=O)c1noc2c1COc1ccc(C)cc1-2)c1ccc(Cl)c(Cl)c1 -30.7%
O=C(CCS(=O)(=O)c1nc(-c2ccc3c(c2)OCO3)cc(C(F)(F)F)n1)Nc1ccccc1F -26%
CCN(CC)C(=O)c1sc2c(c1C)c(=O)n(Cc1ccccc1)c(=O)n2Cc1ccc(Cl)cc1 -11.3%
CCc1cccc(-n2nnc(-c3nc(-c4ccccc4Cl)no3)c2N)c1 -18.5%
CCN(C(=O)CCn1cnc2onc(-c3ccc(F)cc3)c2c1=O)c1ccc(OC)cc1 -6.24%
COc1ccc(Nc2nc3ccccc3c3nnc(C)n23)cc1Cl -8.93%
Cc1cc(C)c(NC(=O)Cn2c(=O)n(Cc3ccco3)c(=O)c3ccc(C(=O)NC4CCCC4)cc32)c(C)c1 -13.4%
O=C(NCC(c1cccnc1)N1CCc2ccccc2C1)C(=O)Nc1ccc(Cl)cc1 (stereo unspecified) -17.6%
Cc1ccc(-c2noc(CSc3nnc(Cc4ccccc4)n3-c3cccc(C)c3)n2)cc1 5.98%
Cn1nnc2c(NCCc3ccccc3)ncnc21 -1.13%
Cc1ccc(NC(=O)CSc2cn(CC(=O)N3CCCCCC3)c3ccccc23)cc1 -1.66%
CCCCCCCCCCCCCCCCCCOCC(O)CO (stereo unspecified) -10.5%
CN1Cc2cc(C(=O)N3CCC(C4CCNCC4)CC3)ccc2NC(CC(=O)O)C1=O (stereo unspecified) -15.5%
Cc1cccc(N2CCN(C(=O)c3cnn(-c4cccc(Cl)c4C)c3C3CCNCC3)CC2)c1C -19.6%
CCOCCCNC(=O)C(c1ccc(C)cc1)N(Cc1cccs1)C(=O)c1ccc(NC(C)=O)cc1 (stereo unspecified) -12.5%
CC(=O)c1cccc(NC(=O)c2c(N3CCCC3=O)c3cc(F)ccc3n2C)c1 -13.8%
COc1ccccc1NC(=O)c1c(NC(=O)c2ccco2)sc2c1CCC(C(C)(C)C)C2 (stereo unspecified) -7.11%
CCSc1ncc(Cl)c(C(=O)Nc2c(C(=O)c3ccc(C)c(F)c3)oc3ccccc23)n1 -14.1%
C[N+](C)(CCOc1ccccc1)Cc1cccs1 5.98%
C[N+]1(C)CCC(OC(=O)C(O)(c2ccccc2)C2CCCC2)C1 (stereo unspecified) -9.14%
CCCc1nc2ccccc2n2c(-c3ccc(C)cc3)c3c(=O)n(C)c(=O)n(C)c3c12 -8.48%
CC(C)c1ccc(NC(=O)c2cccc3c2C(=O)N(C2CCCCC2)C3)cc1 -9.3%
Cc1ccc2c(c1)N(CC(=O)NCc1ccccc1Br)C(=O)c1cccnc1O2 -6.22%
CCOC(=O)c1cc(NC(=O)c2ccc(C)cc2)c(=O)n2c1oc1ccc(Cl)cc12 12%
O=c1oc2ccc(Br)cc2cc1-c1csc(-c2ccccc2)n1 -8.48%
Cc1ccc(N2CC(NC(=O)c3ccc(S(=O)(=O)N4CCCCC4)cc3)CC2=O)cc1 (stereo unspecified) -2.8%
COC(=O)c1ccc(NC(=O)c2cc(=O)c3ccc(C)cc3o2)cc1 3.06%
COc1cc(/C=C(\C#N)C(=O)Nc2ccc(C)cc2)ccc1OCc1cc(=O)n2nc(C)sc2n1 -6%
CCc1cccc(NS(=O)(=O)c2c(C)nc3sc(CC)nn3c2=O)c1 -9.74%
COc1ccc(N2CC(NC(=O)c3cc4ccccc4o3)CC2=O)cc1OC (stereo unspecified) -0.645%
Cc1ccc(NC(=O)Cn2c(=O)n(CCc3ccccc3)c(=O)c3c4c(sc32)CCCC4)c(C)c1 -16.2%
CN(C(=O)C1=CC(c2ccc3c(c2)OCO3)=NS(=O)(=O)N1C)c1ccccc1 -16.5%
Cn1nnc2c(NCc3ccccc3Cl)ncnc21 -7.17%
Cc1nc2c(c(C)nn2-c2ccccc2)c(C)c1CCC(=O)NCCc1ccccc1 -4.09%
CCCC(=O)Nc1nnc2n1CCS2 -18.3%
O=C(CSc1nc2c(c(=O)[nH]1)CN(Cc1ccc3c(c1)OCO3)CC2)Nc1cccc(Cl)c1 -12.9%
COc1ccc(CC(=O)NCc2nc3cccnc3n2Cc2ccc(C)cc2)cc1OC -12.1%
Cc1cccc(Cn2cc3c(=O)n(CC(=O)Nc4ccc(C)c(F)c4)nc-3c3cc(F)ccc32)c1 -9.52%
CCOc1ccc(Oc2nc(NC)nc(N3CCOCC3)n2)nn1 -1.93%
CCOC(=O)c1noc2ncnc(N3CCC(C)CC3)c12 -12.6%
Cc1cccc(-c2nnn3c2nc(NCCc2ccc(S(N)(=O)=O)cc2)c2cc(Cl)ccc23)c1 -16.1%
CS(=O)(=O)N(CC(=O)NCCc1ccccc1)c1cc(C(F)(F)F)ccc1Cl -13.9%
CSc1ccc(-c2nc3ccc(C)cn3c2Nc2ccccc2C)cc1 -8.46%
COc1ccc(-c2cc(C)nc3c(-c4ccc(OC)c(OC)c4)c(C)nn23)cc1 -12.7%
COc1ccc(N2CCN(C(=O)c3cc4ccc5cccnc5c4[nH]3)CC2)cc1 -13.1%
O=C(NCC12CC3CC(CC(C3)C1)C2)c1cc2nc(-c3ccccc3)cc(C(F)(F)F)n2n1 -15.8%
CCCCCn1c(=O)[nH]c2cc(C(=O)N3CCN(c4cccc(C)c4)C(C)C3)ccc2c1=O (stereo unspecified) -0.986%
Cc1cccc(Oc2nc3c(c(=O)n(C)c(=O)n3C)n2C)c1 -10.9%
COc1ccc(OC)c(CCNc2ncnc3onc(-c4ccc(F)cc4)c23)c1 9.92%
O=C1CCCc2cc(S(=O)(=O)NCC3CCC(C(=O)Nc4ccccc4F)CC3)ccc2N1 (stereo unspecified) -0.567%
CNC(=O)c1cc(Nc2nnc(-c3ccc(O)cc3)c3ccccc23)ccc1OC -0.895%
Fc1cc(Br)ccc1Nc1c2c(nc3nc(-c4cccs4)nn13)CCCC2 -23%
CC(NC(=O)c1ccccc1NC(=O)c1nsc2ccccc12)c1ccccc1 (stereo unspecified) -17.2%
CC(=O)c1ccc(NC(=O)C2=CC(c3ccc4c(c3)OCO4)=NS(=O)(=O)N2C)cc1 -9.81%
COC(=O)c1ccc(OC)c(Cn2c(=O)n(Cc3ccccc3)c(=O)c3c2c2cc(OC)ccc2n3C)c1 -4.31%
CCOC(=O)c1cccc(NC(=O)Cn2ncc3c4ccccc4n(Cc4ccccc4)c3c2=O)c1 -1.26%
Cc1ccc(CNC(=O)CCCCCn2c(=O)c3sccc3n(CC(=O)N(C)c3ccccc3)c2=O)cc1 -7.32%

Potency, active:
CCCCOc1ccc(C(=O)N2CCN(CCc3ccccn3)CC2)cc1 8.91 µM
